Measured values reported in PMC12607630.
Where two headings read alike, the source gives them in different places. A number of entries come with more than one value. They are shown here; other results are not. The source may hold further records. For some of these results: The records of an entry appear to be repeats (runs, samples, wells or individuals); a mean can stand among them. Some values that stand alone complete this part of the results.

How the values were obtained:
[1] = target: 6×His-ZapC F30D (Escherichia coli) (UniProt P75862); assay: BLI; 6×His-ZapC or its mutants (0.5 µM) loaded on Ni-NTA biosensors, untagged FtsZ or its variants in solution; Octet-Red96, 30°C, 1× Pol buffer (50 mM HEPES-NaOH pH 6.8, 50 mM KCl, 10 mM MgCl2); apparent Kd from the signal at the end of association against concentration, one-site fit; three repeats with mean (X) and SD
[2] = target: 6×His-ZapC K94D (Escherichia coli) (UniProt P75862); assay: as above

Question: “FtsZ (untagged, wild type) (from UniProt P0A9A6 1-383) (natural protein)” was tested. Which Kd [1] did it give?
Answer: The Kd was 2.97 µM, 2.55 µM, 3.04 µM.

Question: What about the Kd ([1]; mean of three experiments) of the same substance?
Answer: The Kd was 2860 nM.

Question: And the Kd [2]?
Answer: Its Kd is 2.14 µM, 1.74 µM, 2.1 µM.

Question: And the Kd ([2]; mean of three experiments)?
Answer: Its Kd is 1990 nM.
